Data from PubChem BioAssay AID504466 (National Center for Advancing Translational Sciences (NCATS), 2011).
The whole screen tested about 330,000 compounds, of which about 4,200 (1.3%) were called active. Inconclusive results, whose numbers are uncertain, are shown with a selection of clear calls. Calls come from the whole dose curve; as a rule, active = well fitted activation curve with a large enough effect; inconclusive = small, poorly fitted or top-dose-only effect; inactive = no such curve, though single readings can be large or run the other way. Where the call is inconclusive, the potency comes from a doubtful curve fit.

Test: qHTS screen for small molecules that induce genotoxicity in human embryonic kidney (HEK293T) cells expressing luciferase-tagged ELG1; note: nearly all actives have a fitted effect of over 60% in size
Settings: HEK293T ELG1-luciferase reporter, luminescence, 16 h; series mostly up to 46 µM
Excerpt: NIH Molecular Libraries Probe Production Network [MLPCN] NIH Chemical Genomics Center [NCGC] MLPCN Grant: 1 R03 MH092164-01 Assay Provider: Kyungjae Myung, NHGRI, NIH Keywords: MLPCN, qHTS, NCGC, genotoxicity, cancer Assay Overview: Cancer cells divide rapidly compared to normal cells in the body. During cell division, cancer cells need to duplicate their genome by DNA replication. The failure of genome duplication leads to cancer cells' death. Therefore, inhibitors of DNA replication could specifically kill cancer cells. Based on this concept, many chemotherapeutic agents were developed and have been used to treat cancer patients. However, there are a limited number of agents available in the clinical setting, and some of those that do exist have low efficacy and severe side effects. Therefore, if we can find the compounds that effectively block DNA replication either by directly damaging DNA or by inhibiting other cellular mechanisms, the options for cancer treatment will be broadened. With this in mind, we developed a quantitative high-throughput ELG1-luciferase reporter gene assay. Since the level of human ELG1 protein is enhanced in response to genetic stresses, increases in luciferase activity can be used to identify compounds that cause genetic stress.
Assay Protocol Summary: For genotoxicity screening, 2,000 cells in 5 uL/well were dispensed into white, solid-bottom 1536-well plates using a solenoid-based dispenser. Following transfer of 23 nL compound or DMSO vehicle by a pin tool, the plates were incubated 16 hr at 37 °C and 5% CO2. 5 ul ONE-Glo (Promega) was then added to each plate and following a 30 min incubation at room temperature, luciferase activity was quantified on a ViewLux CCD-based plate reader.
Potency is the fitted concentration of half-maximal effect; tags give direction and shape of the fitted curve.

SMILES | Potency
Fc1ccc2cnc(CCO[C@H]3CCCCO3)cc2c1 | inconclusive: 2.91 µM [activator, partial curve]
COC(=O)N1N=C(c2ccccc2)CC1(O)C(F)(F)F (stereo not given) | inconclusive: 11.6 µM [activator, partial curve, poor fit]
O=C(O)c1ccc(N=NN2CCCCCC2)cc1 | inactive
CC(=O)Cn1nnc2sc(-c3ccccc3)cc2c1=O | inconclusive: 18.3 µM [activator, partial curve]
CCN(CC)CC(=O)Nc1ccc2c(c1)Nc1ccccc1CC2 | inactive
Oc1c(C2=NCCNC(C(F)(F)F)=C2)ccc2ccccc12 | active: 9.2 µM
CSc1ccccc1C(=O)OCC(=O)N1CCCCCC1 | inconclusive: 25.9 µM [activator, partial curve, poor fit]
Cc1ccc(NC(=O)n2ncc3c(C)cccc32)cc1F | inconclusive: 2.59 µM [activator, full curve]
O=[N+]([O-])c1ccccc1/C=N/Nc1nccnc1Cl | inconclusive: 18.4 µM [activator, partial curve]
COc1cc(SC)ccc1C(=O)Nc1ccc(Br)cn1 | inconclusive: 0.116 µM [activator, full curve]
O=C(Nc1ccc2nc3n(c(=O)c2c1)CCCC3)c1ccccc1F | inactive
COCCC1CCCCN1C(=O)c1ccc2nc(Cc3ccccc3F)oc2c1 (stereo not given) | active: 10.3 µM
O=C(Nc1ccc(/C=C/c2nc3ccccc3o2)cc1)c1ccc(F)cc1 | inconclusive: 23.1 µM [activator, single point]
Cc1cc(C)n2nc(SCCOc3ccccc3F)nc2n1 | inconclusive: 9.2 µM [activator, partial curve, poor fit]
Cc1nc(C(C)N(C)Cc2nc(-c3ccc4c(c3)OCO4)no2)c(C)s1 (stereo not given) | inactive
CCc1ccc(C(=O)NNC(=O)CC2OC(=O)c3ccccc32)cc1 (stereo not given) | inconclusive: 20.6 µM [activator, partial curve, poor fit]
Cc1ccnc(N2CCC(C(=O)NNC(=O)COc3cccc4ccccc34)CC2)n1 | inactive
CC(C)c1ccc(NC(=O)COC(=O)c2cc(=O)[nH]c3ccccc23)cc1 | inactive
Cc1ccc(N2C(=O)S/C(=C/c3cn(C)c4ccccc34)C2=O)cc1 | inconclusive: 16.4 µM [activator, partial curve, poor fit]
CC(=O)Nc1ccc(/C=C/c2ccc3c([N+](=O)[O-])cccc3n2)cc1 | inconclusive: 5.01 µM [activator, partial curve, poor fit]
O=C1CCCC(O)=C1N=Nc1ccc2ncsc2c1 | inconclusive: 13 µM [activator, partial curve, poor fit]
CCC(=O)Nc1cc2nn(-c3ccccc3)nc2cc1Cl | active: 0.517 µM
COc1ccccc1C(=O)NNC(=O)c1cccc(Br)c1 | inconclusive: 9.2 µM [activator, partial curve]

SMILES | Potency
COc1cccc(C2(O)CC(C(F)(F)F)=NN2C(=O)c2ccccn2)c1 (stereo not given) | inconclusive: 11.6 µM [activator, partial curve, poor fit]
COc1ccc(CCN(C)C(=O)/C=C/c2c(Cl)nc3ccccn23)cc1OC | inconclusive: 6.51 µM [activator, partial curve, poor fit]
Cc1cc(C(F)(F)F)n2nc(-c3cnn(C)c3C(F)(F)F)c(Br)c2n1 | inactive
CCCc1[nH]c2ccc(C(=O)OC)cc2c1CCC | inconclusive: 14.6 µM [activator, partial curve, poor fit]
CC(C)CC1c2[nH]c3ccccc3c2CCN1C(=O)c1cnccn1 (stereo not given) | inconclusive: 20.6 µM [activator, partial curve]
CCCOC(=O)c1ccc(NC(=O)COC)cc1 | inconclusive: 23.1 µM [activator, partial curve]
CCOCC(=O)Nc1ccc2c(c1)OCCO2 | inconclusive: 16.4 µM [activator, partial curve, poor fit]
O=C(CSCc1ccco1)c1ccc(Cl)s1 | inactive
CCOc1ccc(-c2c(C(=O)N/N=C(\C)c3ccco3)nnn2-c2nonc2N)cc1 | inconclusive: 32.6 µM [activator, partial curve, poor fit]
CCCCOC(=O)Nc1ccc(C)c(Cl)c1 | inconclusive: 10.3 µM [activator, partial curve]
Cc1ccc(N=Cc2c(O)[nH]c3ccccc23)c([N+](=O)[O-])c1 | inconclusive: 1.83 µM [activator, partial curve]
COc1ccc(Cl)cc1NC(=O)c1cnc2n(c1=O)CCS2 | inconclusive: 5.17 µM [activator, partial curve]
OCc1ccccc1OCCOc1ccc(Cl)c2cccnc12 | inconclusive: 16.4 µM [activator, single point]
O=C(CC(SCCO)c1ccc([N+](=O)[O-])cc1)c1ccco1 (stereo not given) | inconclusive: 29.1 µM [activator, single point]
CCC(=O)Nc1ccc(C(=O)Nc2cccc(OC)c2)cc1 | inconclusive: 23.1 µM [activator, partial curve, poor fit]
COc1ccc(Br)cc1/C=N/n1c(C)nnc1C | inconclusive: 29.1 µM [activator, partial curve, poor fit]
COCCNC(=O)C(=O)Nc1ccc2c(c1)N(S(=O)(=O)c1cccs1)CCC2 | inactive
Cc1ccc(S(=O)(=O)N2CCCc3ccccc32)cc1C | inactive
Cc1cc(NCCC(C)C)n2nc(C)c(-c3ccccc3)c2n1 | inactive
CC1(C)CC(=O)C(N=Nc2ccc(-c3ccccc3)cc2)=C(O)C1 | inconclusive: 14.6 µM [activator, partial curve, poor fit]
COc1ccc(Cn2c(=O)[nH]c3cc(C(=O)NC4CCCC4)ccc3c2=O)cc1 | inconclusive: 18.3 µM [activator, partial curve, poor fit]
CCc1ccc(C(=O)CSc2ncn[nH]2)cc1 | inconclusive: 23.1 µM [activator, single point]
